Source: the supplement of paper PMC7125110
± gives the standard error. Variants at the background level are over-represented here.

B1: glmS ribozyme (parent)
chain: AUAAAAGCGCCAGAACUACAGAAAUGUAGUUGACGAGGAGGAGGUUUAUCGAAUUUUCGGCGGAUGCCUCCAAA

Columns and labels:
Settings in all cases: with glucosamine-6-phosphate
glucosamine-6-phosphate [1] = variants of: B1; assay: self-cleavage kobs at 40 uM GlcN6P; higher = faster cleavage; RNA array
Procedure, shortened: (§1)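 Barcoded glmS ribozyme variants on sequenced MiSeq chips were transcribed in situ by E. coli RNA polymerase and tracked through a hybridised Cy3 probe at 37 °C. Glucosamine-6-phosphate (40 μM to 10 mM) in HEPES/KCl/Mg(OAc)2 buffer was flowed in, and tiles were imaged over ~14 h. Signals were normalised to baseline and to non-cleaving reference variants; per-tile medians were fit to one- or two-exponential decays to give kobs. kcat and KM came from weighted Michaelis–Menten fits across concentrations.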

glucosamine-6-phosphate [2] = variants of: B1; assay: self-cleavage kobs at 640 uM GlcN6P; higher = faster cleavage; RNA array
Procedure, shortened: as §1

glucosamine-6-phosphate [3] = variants of: B1; assay: self-cleavage kobs at 160 uM GlcN6P; higher = faster cleavage; RNA array
Procedure, shortened: as §1

glucosamine-6-phosphate [4] = variants of: B1; assay: self-cleavage kobs at 2500 uM GlcN6P; higher = faster cleavage; RNA array
Procedure, shortened: as §1

glucosamine-6-phosphate [5] = variants of: B1; assay: self-cleavage kobs at 10000 uM GlcN6P; higher = faster cleavage; RNA array
Procedure, shortened: as §1

Variant | self-cleavage kobs at 40 uM GlcN6P (glucosamine-6-phosphate [1]) [s⁻¹] | self-cleavage kobs at 640 uM GlcN6P (glucosamine-6-phosphate [2]) [s⁻¹] | self-cleavage kobs at 160 uM GlcN6P (glucosamine-6-phosphate [3]) [s⁻¹] | self-cleavage kobs at 2500 uM GlcN6P (glucosamine-6-phosphate [4]) [s⁻¹] | self-cleavage kobs at 10000 uM GlcN6P (glucosamine-6-phosphate [5]) [s⁻¹]
G43C U47C | < 1e-05 | < 1e-05 | < 1e-05 | < 1e-05 | –
G43A C70G | < 1e-05 | < 1e-05 | < 1e-05 | < 1e-05 | < 1e-05
G43C G63U | < 1e-05 | < 1e-05 | < 1e-05 | < 1e-05 | –
G41U U45A | 8.05e-05 ± 2.1e-05 | – | – | – | 0.000309 ± 5.5e-05
A42U G60U C70G | < 1e-05 | < 1e-05 | < 1e-05 | – | < 1e-05
A42G C70G | 4.1e-05 ± 7.7e-06 | – | – | – | –
G43A U45G C58G | < 1e-05 | – | – | – | –
G41U G51C | < 1e-05 | < 1e-05 | < 1e-05 | – | < 1e-05
G43A A64C | < 1e-05 | < 1e-05 | – | – | –
A42G G63A | < 1e-05 | < 1e-05 | < 1e-05 | < 1e-05 | < 1e-05
A42C U55C | < 1e-05 | – | – | – | –
A42C U55A | < 1e-05 | – | – | – | –
G43C G44U | < 1e-05 | < 1e-05 | < 1e-05 | < 1e-05 | < 1e-05
A42G G62U | < 1e-05 | < 1e-05 | < 1e-05 | < 1e-05 | < 1e-05
A42C U56A | < 1e-05 | < 1e-05 | – | – | –
A42G U54A | 0.000967 ± 0.00013 | 0.029 ± 0.0057 | 0.00396 ± 0.0011 | – | 0.0172 ± 0.004
A42U U49G U57A C61G | < 1e-05 | < 1e-05 | – | < 1e-05 | < 1e-05
A42G A48U C71G | < 1e-05 | – | – | – | –
G41C C61U U69C | < 1e-05 | < 1e-05 | < 1e-05 | < 1e-05 | < 1e-05
G43A C68A | < 1e-05 | – | – | – | –
G43A G44U U46C | < 1e-05 | – | – | – | < 1e-05
A42G G44C | < 1e-05 | – | < 1e-05 | – | –
G41U U57G | < 1e-05 | < 1e-05 | < 1e-05 | – | –
G41U G43U G44U U56C | < 1e-05 | < 1e-05 | – | – | –
A42C G63C | < 1e-05 | < 1e-05 | < 1e-05 | < 1e-05 | < 1e-05

Variant | self-cleavage kobs at 40 uM GlcN6P (glucosamine-6-phosphate [1]) [s⁻¹] | self-cleavage kobs at 640 uM GlcN6P (glucosamine-6-phosphate [2]) [s⁻¹] | self-cleavage kobs at 160 uM GlcN6P (glucosamine-6-phosphate [3]) [s⁻¹] | self-cleavage kobs at 2500 uM GlcN6P (glucosamine-6-phosphate [4]) [s⁻¹] | self-cleavage kobs at 10000 uM GlcN6P (glucosamine-6-phosphate [5]) [s⁻¹]
G43C A53C | < 1e-05 | < 1e-05 | < 1e-05 | < 1e-05 | –
A42C A53C C68U | < 1e-05 | < 1e-05 | – | < 1e-05 | –
G41U A42G | 4.79e-05 ± 9.1e-06 | 0.000285 ± 6.2e-05 | 9.47e-05 ± 2e-05 | 0.000816 ± 0.00012 | 0.000843 ± 0.00012
A42G G66C | < 1e-05 | – | – | – | –
G41C U46C G60C | < 1e-05 | – | < 1e-05 | – | < 1e-05
G41U U55A G63A | < 1e-05 | – | – | – | < 1e-05
G41C G44U G66U | < 1e-05 | – | – | – | –
A42U G44A U65G | < 1e-05 | – | – | – | –
G43A U46C | < 1e-05 | – | – | < 1e-05 | –
G43A U46G | < 1e-05 | – | – | – | –
G43A U46A U54G | < 1e-05 | – | – | – | –
A42G C68A | < 1e-05 | – | – | – | –
G43C C71U | < 1e-05 | < 1e-05 | < 1e-05 | < 1e-05 | –
G43A G63U | < 1e-05 | < 1e-05 | < 1e-05 | – | –
G41C G43U | < 1e-05 | – | – | – | –
A42C C70U | < 1e-05 | – | – | – | –
G41U C61G | < 1e-05 | < 1e-05 | < 1e-05 | < 1e-05 | < 1e-05
A42U G60C C67A | < 1e-05 | – | – | – | < 1e-05
A42G A52U C70A | < 1e-05 | – | < 1e-05 | – | –
A42U A48G | < 1e-05 | < 1e-05 | < 1e-05 | – | –
G43A U49A C61U G62A G66A | < 1e-05 | – | – | – | < 1e-05
A42C A64C | < 1e-05 | < 1e-05 | < 1e-05 | – | < 1e-05
A42C U49G | < 1e-05 | – | – | – | < 1e-05
G43A G44A G51A C58A | < 1e-05 | – | – | – | < 1e-05
A42G G60A | < 1e-05 | < 1e-05 | – | – | –

Variant | self-cleavage kobs at 40 uM GlcN6P (glucosamine-6-phosphate [1]) [s⁻¹] | self-cleavage kobs at 640 uM GlcN6P (glucosamine-6-phosphate [2]) [s⁻¹] | self-cleavage kobs at 160 uM GlcN6P (glucosamine-6-phosphate [3]) [s⁻¹] | self-cleavage kobs at 2500 uM GlcN6P (glucosamine-6-phosphate [4]) [s⁻¹] | self-cleavage kobs at 10000 uM GlcN6P (glucosamine-6-phosphate [5]) [s⁻¹]
G41U G51U G63U C68G | < 1e-05 | – | – | – | < 1e-05
A42U G60A C68A | < 1e-05 | – | – | < 1e-05 | –
A42C C58G | < 1e-05 | – | – | < 1e-05 | < 1e-05
A42G C58G G66A | < 1e-05 | – | – | – | –
G41C U47C C68U | < 1e-05 | < 1e-05 | – | – | –
G41C U56C | < 1e-05 | – | < 1e-05 | – | –
A42U G44C C68G | < 1e-05 | – | – | – | < 1e-05
A42G C50U | < 1e-05 | – | – | 3.96e-05 ± 1.9e-05 | 8.57e-05 ± 1.3e-05
A42G C50A | < 1e-05 | – | – | – | –
A42C A52U C61U | < 1e-05 | < 1e-05 | – | – | –
G41C G63A C68A C70G | < 1e-05 | – | – | – | –
G41U U47A | 7.19e-05 ± 1.3e-05 | 0.000232 ± 5.2e-05 | 0.000127 ± 3.9e-05 | 0.000656 ± 0.00012 | 0.000706 ± 0.00012
A42U G43C G59C | < 1e-05 | < 1e-05 | – | < 1e-05 | –
A42U C50U C61A | < 1e-05 | – | – | – | < 1e-05
G43A A53U | < 1e-05 | – | < 1e-05 | – | –
A42G A52U | < 1e-05 | – | – | – | –
A42C C68U C70U | < 1e-05 | – | – | – | –
A42C G66C | < 1e-05 | < 1e-05 | < 1e-05 | < 1e-05 | < 1e-05
G41U A64C | < 1e-05 | < 1e-05 | – | < 1e-05 | < 1e-05
G41U A64U | < 1e-05 | < 1e-05 | – | – | –
G41U A53G | 0.000167 ± 2.7e-05 | 0.00133 ± 0.0002 | 0.000362 ± 7.8e-05 | 0.000959 ± 0.00015 | –
G43A G59C C70U | < 1e-05 | – | – | – | –
A42G U69A | 0.000758 ± 0.00012 | – | – | – | –
A42C U55A C71A | < 1e-05 | – | – | – | < 1e-05
G41U U57C C61U | < 1e-05 | – | – | – | –

Variant | self-cleavage kobs at 40 uM GlcN6P (glucosamine-6-phosphate [1]) [s⁻¹] | self-cleavage kobs at 640 uM GlcN6P (glucosamine-6-phosphate [2]) [s⁻¹] | self-cleavage kobs at 160 uM GlcN6P (glucosamine-6-phosphate [3]) [s⁻¹] | self-cleavage kobs at 2500 uM GlcN6P (glucosamine-6-phosphate [4]) [s⁻¹] | self-cleavage kobs at 10000 uM GlcN6P (glucosamine-6-phosphate [5]) [s⁻¹]
G41U A42G G44A A48G | < 1e-05 | < 1e-05 | – | – | –
A42G G62C C68U C71A | < 1e-05 | – | – | – | < 1e-05
G41U G66A | 7.21e-05 ± 1.7e-05 | 0.000701 ± 0.00023 | 0.000253 ± 7.9e-05 | 0.00141 ± 0.00028 | 0.00299 ± 0.00054
G43A U56A | < 1e-05 | – | < 1e-05 | – | –
G41U A48U U55A | < 1e-05 | – | – | – | –
G41C G62U | < 1e-05 | < 1e-05 | – | – | < 1e-05
A42U C58U | < 1e-05 | < 1e-05 | < 1e-05 | < 1e-05 | –
A42U G51U U55G | < 1e-05 | – | – | – | –
G41U C50U G59U G66U | < 1e-05 | – | – | – | –
G43C U54A | < 1e-05 | < 1e-05 | < 1e-05 | < 1e-05 | < 1e-05
A42G U55G G63U | < 1e-05 | – | – | – | < 1e-05
G43C C58U | < 1e-05 | < 1e-05 | < 1e-05 | < 1e-05 | < 1e-05
A42C | < 1e-05 | – | < 1e-05 | – | –
G41C U57C | < 1e-05 | – | < 1e-05 | < 1e-05 | < 1e-05
G41C U55A | < 1e-05 | – | – | 5.87e-05 ± 2e-05 | 7.36e-05 ± 2e-05
A42C G59C | < 1e-05 | – | – | – | –
A42U A53G C70G | < 1e-05 | – | – | – | –
A42U U55A G63C | < 1e-05 | < 1e-05 | < 1e-05 | – | < 1e-05
G41U C61U U65A | < 1e-05 | < 1e-05 | – | < 1e-05 | < 1e-05
A42U U49G | < 1e-05 | < 1e-05 | – | < 1e-05 | –
G43A G59U | < 1e-05 | < 1e-05 | < 1e-05 | – | < 1e-05
A42C C67U | < 1e-05 | – | < 1e-05 | – | –
A42C C71U | < 1e-05 | < 1e-05 | < 1e-05 | – | –
A42C C71A | < 1e-05 | – | < 1e-05 | < 1e-05 | < 1e-05
